Source: article PMC9911399, “Two distinct binding modes provide the RNA-binding protein RbFox with extraordinary sequence specificity”
Substitutions are numbered along the chain they refer to; changes in the protein carry UniProt numbers. This is one part of the list.

T1: RBFOX1 RRM (Homo sapiens, UniProt Q9NWB1 109-208)
T1 sequence: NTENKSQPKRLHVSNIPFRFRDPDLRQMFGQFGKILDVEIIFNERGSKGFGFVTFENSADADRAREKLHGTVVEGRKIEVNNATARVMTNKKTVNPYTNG

B1: UAAACAG (DNA:RNA)
RNA: GGGAGACCGGAAUUCAGAUUGUCCUAAACAGUUAAAUCCCGUCGUAGCCACCA
DNA 1: CAATCTGAATTCCGGTCTCCC
DNA 2: TGGTGGCTACGACGGGATT
B2: UAACGAU (DNA:RNA)
RNA: B1 RNA with A28C, C29G, G31U
DNA 1: CAATCTGAATTCCGGTCTCCC
DNA 2: TGGTGGCTACGACGGGATT
B3: GGAGGCU (DNA:RNA)
RNA: B1 RNA with U25G, A26G, A28G, C29G, A30C, G31U
DNA 1: CAATCTGAATTCCGGTCTCCC
DNA 2: TGGTGGCTACGACGGGATT
B4: GUUUAGG (DNA:RNA)
RNA: B1 RNA with U25G, A26U, A27U, A28U, C29A, A30G
DNA 1: CAATCTGAATTCCGGTCTCCC
DNA 2: TGGTGGCTACGACGGGATT
B5: GUGUCUC (DNA:RNA)
RNA: B1 RNA with U25G, A26U, A27G, A28U, A30U, G31C
DNA 1: CAATCTGAATTCCGGTCTCCC
DNA 2: TGGTGGCTACGACGGGATT
B6: AUUGGAC (DNA:RNA)
RNA: B1 RNA with U25A, A26U, A27U, A28G, C29G, G31C
DNA 1: CAATCTGAATTCCGGTCTCCC
DNA 2: TGGTGGCTACGACGGGATT
B7: UUCAACG (DNA:RNA)
RNA: B1 RNA with A26U, A27C, C29A, A30C
DNA 1: CAATCTGAATTCCGGTCTCCC
DNA 2: TGGTGGCTACGACGGGATT
B8: UGUGGUA (DNA:RNA)
RNA: B1 RNA with A26G, A27U, A28G, C29G, A30U, G31A
DNA 1: CAATCTGAATTCCGGTCTCCC
DNA 2: TGGTGGCTACGACGGGATT
B9: AUUUAAC (DNA:RNA)
RNA: B1 RNA with U25A, A26U, A27U, A28U, C29A, G31C
DNA 1: CAATCTGAATTCCGGTCTCCC
DNA 2: TGGTGGCTACGACGGGATT
B10: AGCAUGG (DNA:RNA)
RNA: B1 RNA with U25A, A26G, A27C, C29U, A30G
DNA 1: CAATCTGAATTCCGGTCTCCC
DNA 2: TGGTGGCTACGACGGGATT
B11: AUCCAAU (DNA:RNA)
RNA: B1 RNA with U25A, A26U, A27C, A28C, C29A, G31U
DNA 1: CAATCTGAATTCCGGTCTCCC
DNA 2: TGGTGGCTACGACGGGATT
B12: UGGGGAC (DNA:RNA)
RNA: B1 RNA with A26G, A27G, A28G, C29G, G31C
DNA 1: CAATCTGAATTCCGGTCTCCC
DNA 2: TGGTGGCTACGACGGGATT
B13: UAACUAU (DNA:RNA)
RNA: B1 RNA with A28C, C29U, G31U
DNA 1: CAATCTGAATTCCGGTCTCCC
DNA 2: TGGTGGCTACGACGGGATT
B14: AUUACCU (DNA:RNA)
RNA: B1 RNA with U25A, A26U, A27U, A30C, G31U
DNA 1: CAATCTGAATTCCGGTCTCCC
DNA 2: TGGTGGCTACGACGGGATT
B15: UUCACGA (DNA:RNA)
RNA: B1 RNA with A26U, A27C, A30G, G31A
DNA 1: CAATCTGAATTCCGGTCTCCC
DNA 2: TGGTGGCTACGACGGGATT
B16: GAAUAGC (DNA:RNA)
RNA: B1 RNA with U25G, A28U, C29A, A30G, G31C
DNA 1: CAATCTGAATTCCGGTCTCCC
DNA 2: TGGTGGCTACGACGGGATT
B17: GUGGGCU (DNA:RNA)
RNA: GGGAGACCGGAAUUCAGAUUGUCCGUGGGCUUUAAAUCCCGUCGUAGCCACCA
DNA 1: CAATCTGAATTCCGGTCTCCC
DNA 2: TGGTGGCTACGACGGGATT
B18: CUCGUGU (DNA:RNA)
RNA: B17 RNA with G25C, G27C, G29U, C30G
DNA 1: CAATCTGAATTCCGGTCTCCC
DNA 2: TGGTGGCTACGACGGGATT
B19: CUACUUC (DNA:RNA)
RNA: B17 RNA with G25C, G27A, G28C, G29U, C30U, U31C
DNA 1: CAATCTGAATTCCGGTCTCCC
DNA 2: TGGTGGCTACGACGGGATT
B20: GACUCGA (DNA:RNA)
RNA: B1 RNA with U25G, A27C, A28U, A30G, G31A
DNA 1: CAATCTGAATTCCGGTCTCCC
DNA 2: TGGTGGCTACGACGGGATT

target: T1, RBFOX1 RRM; test: EMSA; HiTS-Eq, 1 nM pool, 10 min; buffer printed only for the single-RNA assays: 10 mM Tris pH 7.5, 150 mM NaCl, 3.4 mM EDTA, 0.001% NP-40, 30 C; details: tags: His6 N-terminal (pET28a); label: 5' 32P
Outline: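 Purified RbFox RRM (wild type or mutant) was equilibrated for 10 min in 50 µL with 1 nM of a 5′-radiolabelled pool of RNA with 7 randomized nucleotides, its flanks annealed to DNA oligonucleotides, across increasing protein concentrations. Free RNA was separated by 8% native PAGE, excised, reverse-transcribed, PCR-barcoded and sequenced on an Illumina HiSeq 2500. Relative association constants came from read-count changes of each variant against the control reaction, normalised to the cognate motif.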

Binder | binding signal
B1 | 0.0034 KA relative to UGCAUGU
B2 | 0.00896 KA relative to UGCAUGU
B3 | 0.0186 KA relative to UGCAUGU
B4 | 0.0122 KA relative to UGCAUGU
B5 | 0.0141 KA relative to UGCAUGU
B6 | 0.00518 KA relative to UGCAUGU
B7 | 0.00556 KA relative to UGCAUGU
B8 | 0.0252 KA relative to UGCAUGU
B9 | 0.00273 KA relative to UGCAUGU
B10 | 0.347 KA relative to UGCAUGU
B11 | 0.000695 KA relative to UGCAUGU
B12 | 0.00842 KA relative to UGCAUGU
B13 | 0.00371 KA relative to UGCAUGU
B14 | 0.000788 KA relative to UGCAUGU
B15 | 0.00967 KA relative to UGCAUGU
B16 | 0.00832 KA relative to UGCAUGU
B17 | 0.0216 KA relative to UGCAUGU
B18 | 0.0166 KA relative to UGCAUGU
B19 | 0.00256 KA relative to UGCAUGU
B20 | 0.0136 KA relative to UGCAUGU
